# From ChEMBL document CHEMBL2375291, “Discovery of a series of novel 5H-pyrrolo[2,3-b]pyrazine-2-phenyl ethers, as potent JAK3 kinase inhibitors” (Bioorg Med Chem Lett, 2013)
# Columns and labels:
# [1] = biological target: T1, Tyrosine-protein kinase JAK2 (Homo sapiens, UniProt O60674)
# JAK2/JAK1 = JAK2/JAK1 (Homo sapiens, UniProt O60674+P23458); assay type: protein-complex assay
# [2] = biological target: T1, Tyrosine-protein kinase JAK2; remark: listed apart in the source
# JAK3/JAK1 = JAK3/JAK1 (Homo sapiens, UniProt P23458+P52333); assay type: protein-complex assay
IC50 [1] [nM],IC50 (JAK2/JAK1) [µM],IC50 [2] [µM],IC50 (JAK3/JAK1) [µM],SMILES
250,–,–,–,CC(C)NC(=O)c1c[nH]c2ncc(Oc3ccccc3)nc12
410,–,–,–,Cc1cccc(Oc2cnc3[nH]cc(C(=O)NC(C)C)c3n2)c1
1210,–,–,–,CCc1cccc(Oc2cnc3[nH]cc(C(=O)NC(C)C)c3n2)c1
1000,–,–,–,COc1cc(OC)cc(Oc2cnc3[nH]cc(C(=O)NC(C)C)c3n2)c1
900,–,–,–,CC(C)NC(=O)c1c[nH]c2ncc(Oc3ccc(C#N)cc3)nc12
2320,–,–,–,Cc1ccccc1Oc1cnc2[nH]cc(C(=O)NC(C)C)c2n1
70,–,–,–,CC(NC(=O)c1c[nH]c2ncc(Oc3ccccc3)nc12)C1CC1 (stereo not given)
1710,–,–,–,CC(=O)N[C@H]1CCc2ccc(Oc3cnc4[nH]cc(C(=O)NC(C)C)c4n3)cc21
1010,–,–,–,CC(=O)N[C@@H]1CCc2ccc(Oc3cnc4[nH]cc(C(=O)NC(C)C)c4n3)cc21
84,14.4,3.61,–,CC(=O)N[C@@H]1CCc2ccc(Oc3cnc4[nH]cc(C(=O)N[C@@H](C)C5CC5)c4n3)cc21
194,> 30,16.2,–,CC(=O)N[C@@H]1CCc2ccc(Oc3cnc4[nH]cc(C(=O)N[C@H](C)C5CC5)c4n3)cc21
1350,–,–,–,CC(=O)N[C@@H]1CCc2ccc(Oc3cnc4[nH]cc(C(=O)N[C@H](C)C(=O)N5CC(C#N)C5)c4n3)cc21
39,> 30,23.3,7.41,CC(=O)N[C@@H]1CCc2ccc(Oc3cnc4[nH]cc(C(=O)N[C@@H](C(=O)N5CC(C#N)C5)C5CC5)c4n3)cc21
